Test results from the supplement of paper PMC12217912.
The other results are listed elsewhere or left out. Sequences were assembled here from the parent chain. Values near 0.05 are background.

B1: TEV protease; numbered along this chain (parent)
chain: MGESLFKGPRDYNPISSSICHLTNESDGHTTSLYGIGFGPFIITNKHLFRRNNGTLVVQSLHGVFKVKDTTTLQQHLVDGRDMIIIRMPKDFPPFPQKLKFREPQREERICLVTTNFQTKSMSSMVSDTSCTFPSGDGIFWKHWIQTKDGQCGSPLVSTRDGFIVGIHSASNFTNTNNYFTSVPKNFMELLTNQEAQQWVSGWRLNADSVLWGGHKVFMVKPEEPFQPVKEATQL

Variants of: B1
Experiment: raw area under fraction-flipped curve 0-4 h after induction (AUC4h, not background-subtracted), DNA-recorder readout of cleavage of the substrate (dimensionless); higher = more cleavage of the substrate by the protease variant
Conditions: temperature: 34 °C; time window: 0-4 h after rhamnose induction
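Also: Bxb1 expression induced with 0.2% (w/v) L-rhamnose at OD600 near 0.5, cultures sampled hourly, flipped fraction per protease–substrate barcode pair counted by paired-end Illumina sequencing.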

Row | Variant | area with substrate ENCYFQS | area with substrate ENDYFQS | area with substrate ENEYFQS | area with substrate ENGYFQS | area with substrate ENIYFQS | area with substrate ENNYFQS | area with substrate ENQYFQS | area with substrate ENSYFQS | area with substrate ENVYFQS | area with substrate ENWYFQS | area with substrate ENKYFQS | area with substrate ENPYFQS | area with substrate ENFYFQS | area with substrate ENHYFQS | area with substrate ENRYFQS | area with substrate ENTYFQS | area with substrate ENYYFQS
1 | MGESLFKGPRDYNPISSSICHLTNESDGHTTSLYGIGFGPFIITNKHLFRRNNGTLVVQSLHGVFKVKDTTTLQQHLVDGRDMIIIRMPKDFPPFPQKLAFREPQREERICLVTTNFQTKSMSSMVSDTSCTFPSGDGIFWKHWIQTKDGQCGSPLVSTRDGFIVGIHSASNFTNTNNYFTSVPKNFMELLTNQEAQQWVSGWRLNADSVLWGGHKVFMVKPEEPFQPVKEATQL [K100A] | 0.0675 | 0.0538 | 0.0644 | 0.0786 | 0.123 | 0.0539 | 0.0552 | 0.0615 | 0.0602 | 0.0438 |  |  |  |  |  |  | 
2 | MGESLFKGPRDYNPISSSICHLTNESDGHTTSLYGIGFGPFIITNKHLFRRNNGTLVVQSLHGVFKVKDTTTLQQHLVDGRDMIIIRMPKDFPPFPQKLKFREPQRCERICLVTTNFQTKSMSSMVSDTSCTFPSGDGIFWKHWIQTKDGQCGSPLVSTRDGFIVGIHSASNFTNTNNYFTSVPKNFMELLTNQEAQQWVSGWRLNADSVLWGGHKVFMVKPEEPFQPVKEATQL [E107C] | 0.0526 | 0.0617 | 0.0713 | 0.0674 |  | 0.0776 |  | 0.0614 |  | 0.0735 | 0.0495 | 0.0546 |  |  |  |  | 
3 | MGESLFKGPRDYNPISSSICHLTNESDGHTTSLYGIGFGPFIITNKHLFRRNNGTLVVQSLHGVFKVKDTTTLQQHLVDGRDMIIIRMPKDFPPFPQKLKFREPQREERIFLVTTNFQTKSMSSMVSDTSCTFPSGDGIFWKHWIQTKDGQCGSPLVSTRDGFIVGIHSASNFTNTNNYFTSVPKNFMELLTNQEAQQWVSGWRLNADSVLWGGHKVFMVKPEEPFQPVKEATQL [C111F] | 0.0816 | 0.0546 | 0.0479 | 0.0641 |  | 0.0643 | 0.0608 | 0.0548 | 0.102 |  |  | 0.0518 | 0.068 | 0.0568 | 0.0549 | 0.0833 | 0.0603
4 | MGESLFKGPRDYNPISSSICHLTNESDGHTTSLYGIGFGPFIITNKHLFRRNNGTLVVQSLHGVFKVKDTTTLQQHLVDGRDMIIIRMPKDFPPFPQKLKFREPQREERICLVTVNFQTKSMSSMVSDTSCTFPSGDGIFWKHWIQTKDGQCGSPLVSTRDGFIVGIHSASNFTNTNNYFTSVPKNFMELLTNQEAQQWVSGWRLNADSVLWGGHKVFMVKPEEPFQPVKEATQL [T115V] | 0.0608 | 0.0601 | 0.0531 |  |  | 0.0679 | 0.0536 | 0.0653 |  |  |  |  | 0.0628 |  | 0.0624 |  | 0.0548
5 | MGESLFKGPRDYNPISSSICHLTNESDGHTTSLYGIGFGPFIITNKHLFRRNNGTLVVQSLHGVFKVKDTTTLQQHLVDGRDMIIIRMPKDFPPFPQKLKFREPQREERICLVTTNFQTKSMSSMLSDTSCTFPSGDGIFWKHWIQTKDGQCGSPLVSTRDGFIVGIHSASNFTNTNNYFTSVPKNFMELLTNQEAQQWVSGWRLNADSVLWGGHKVFMVKPEEPFQPVKEATQL [V126L] | 0.0674 | 0.0574 |  |  |  |  |  | 0.0587 | 0.0932 | 0.0614 |  | 0.053 | 0.0525 |  |  |  | 
6 | MGESLFKGPRDYNPISSSICHLTNESDGHTTSLYGIGFGPFIITNKHLFRRNNGTLVVQSLHGVFKVKDTTTLQQHLVDGRDMIIIRMPKDFPPFPQKLKFREPQREERICLVTTNFQTKSMSSMVSDTSCHFPSGDGIFWKHWIQTKDGQCGSPLVSTRDGFIVGIHSASNFTNTNNYFTSVPKNFMELLTNQEAQQWVSGWRLNADSVLWGGHKVFMVKPEEPFQPVKEATQL [T132H] | 0.0609 | 0.0644 |  |  |  |  | 0.0538 |  | 0.0609 |  | 0.0555 | 0.0489 | 0.0699 |  | 0.063 | 0.0566 | 
7 | MGESLFKGPRDYNPISSSICHLTNESDGHTTSLYGIGFGPFIITNKHLFRRNNGTLVVQSLHGVFKVKDTTTLQQHLVDGRDMIIIRMPKDFPPFPQKLKFREPQREERICLVTTNFQTKSMSSMVSDTSCTFPSGDGDFWKHWIQTKDGQCGSPLVSTRDGFIVGIHSASNFTNTNNYFTSVPKNFMELLTNQEAQQWVSGWRLNADSVLWGGHKVFMVKPEEPFQPVKEATQL [I139D] | 0.0615 | 0.0607 | 0.0694 | 0.0648 |  | 0.0646 |  | 0.0642 | 0.0701 |  | 0.104 | 0.0579 |  | 0.0676 | 0.0549 | 0.0456 | 
8 | MGESLFKGPRDYNPISSSICHLTNESDGHTTSLYGIGFGPFIITNKHLFRRNNGTLVVQSLHGVFKVKDTTTLQQHLVDGRDMIIIRMPKDFPPFPQKLKFREPQREERICLVTTNFQTKSMSSMVSDTSCTFPSGDGIFWKIWIQTKDGQCGSPLVSTRDGFIVGIHSASNFTNTNNYFTSVPKNFMELLTNQEAQQWVSGWRLNADSVLWGGHKVFMVKPEEPFQPVKEATQL [H143I] | 0.0668 | 0.0578 |  | 0.0589 |  |  | 0.0498 |  |  |  | 0.0792 |  |  |  | 0.0433 | 0.0512 | 
9 | MGESLFKGPRDYNPISSSICHLTNESDGHTTSLYGIGFGPFIITNKHLFRRNNGTLVVQSLHGVFKVKDTTTLQQHLVDGRDMIIIRMPKDFPPFPQKLKFREPQREERICLVTTNFQTKSMSSMVSDTSCTFPSGDGIFWKHWHQTKDGQCGSPLVSTRDGFIVGIHSASNFTNTNNYFTSVPKNFMELLTNQEAQQWVSGWRLNADSVLWGGHKVFMVKPEEPFQPVKEATQL [I145H] | 0.0703 | 0.0583 | 0.0565 |  |  |  | 0.0609 | 0.0712 |  |  |  | 0.0581 |  |  | 0.0474 | 0.0585 | 
10 | MGESLFKGPRDYNPISSSICHLTNESDGHTTSLYGIGFGPFIITNKHLFRRNNGTLVVQSLHGVFKVKDTTTLQQHLVDGRDMIIIRMPKDFPPFPQKLKFREPQREERICLVTTNFQTKSMSSMVSDTSCTFPSGDGIFWKHWIQTKDGFCGSPLVSTRDGFIVGIHSASNFTNTNNYFTSVPKNFMELLTNQEAQQWVSGWRLNADSVLWGGHKVFMVKPEEPFQPVKEATQL [Q151F] | 0.0619 |  | 0.0622 | 0.0554 |  |  |  | 0.0311 |  |  | 0.0578 | 0.0609 |  |  |  |  | 0.0453
